Test results reported in patent US8361473B2, “Antibodies and their uses for diagnosis and treatment of cytomegalovirus infection and associated diseases” (priority 2007, dated 2013).
Entries after “also recorded” stand apart in the source; their conditions may differ.

What was measured:
Format in all cases: cell-based, human
[1] = test system: CMV infected fibroblast cells killed by CTLs targeted to the pp65 (495-503) epitope; experiment: Cytotoxicity assay: blocking of CTL-mediated killing; conditions: CMV infected fibroblasts 72 h, target:effector 1:10, five hours
Method: Cytotoxicity assay—Target cells were cultured in 48-well plates in DMEM medium plus 10% FCS and were grown up until confluent. Cells were washed and incubated overnight with 15 μCi/ml (1 Ci 37 GBq) [35^S] methionine (NEN). After 1 hour of incubation with the IgG H9 (10-20 μg/ml or the indicated concentration at 37° C.), effector CTL cells were added at a target:effector ratio of 1:3 respectively and incubated for 5 hours at 37° C. After incubation, [35^S] methionine release from target cells was measured in a 50-μl sample of the culture supernatant. All assays were performed in triplicate.
Briefly, fibroblast cells were radioactively labeled with S^35-methionine before infection with the CMV virus and 72 hours later the cells were incubated with H9 Ab. CTLs from a line targeted to the pp65 (495-503) epitope were added at a target (i.e., fibroblast cells)—effector (i.e., CTL) ratio of 1:10 and incubated for five hours. Cells incubated with anti-HLA-A2 W6/32 MAb were used as positive control, while cells without any Ab incubation served as a reference for maximal killing.

[2] = test system: HLA-A2/pp65 495-503 complexes in fibroblasts infected with CMV AD169 or RV798; experiment: Kinetic flow cytometry of HLA-A2/pp65 complex expression, intracellular and extracellular staining
[3] = test system: HLA-A2/pp65 complexes in CMV infected fibroblasts; experiment: Confocal microscopy of fibroblasts
Method: Confocal microscopy—Infected and noninfected fibroblast cells were fixed for 10 minutes with 0.5% paraformaldehyde, and washed twice with PBS containing 0.1% bovine serum albumin (BSA). The cells were permeabilized and incubated with anti pp65 mAb, H9 IgG, anti calnexin (Chemicon, cat. No. MAB3126), and/or cis-golgi matrix protein (GM130) (BD transduction laboratories, cat No. 610822) in the presence of a PBS medium containing 0.05% saponin, 1% fetal bovine serum, and 0.1% BSA, for 40 minutes at 4° C. Cells were subsequently washed and further incubated with goat anti mouse secondary Ab conjugated to Alexa-flour^594 (Molecular Probes, cat. No. A21216), and goat anti human secondary Ab conjugated to Alexa-flour^488 (Molecular Probes, cat. No. A11013), respectively. DRAQ5 (Alexis Biochemicals) was added to the stained cells before they were washed again. Images were collected on a LSM 510 META laser scanning microscope (Carl Zeiss Microimaging Inc) using a ×63 oil immersion objective numerical aperture 1.32, at different zoom factors. Alexa Fluor^488 was excited using an argon laser at 488 nm. Alexa Fluor^594 was excited using a krypton laser at 568 mm. Differential interference contrast images were collected simultaneous with the fluorescence images using the transmitted light detector. Z stacks of images were collected using a step increment of 0.3 μm between planes. […]

[4] = test system: HLA-A2/pp65 complexes in PBMCs of BMT patients under reactivation of CMV infection; experiment: Flow cytometry of PBMCs from BMT patients and healthy donors
Method: Isolation of PBMCs—Samples of 20-30 ml blood obtained from healthy donors or BMT patients, containing 500 units (U) of heparin was added to 50 ml sterile tubes containing 15 ml Lymphoprep™ (Axis shield PoC AS, Oslo Norway). The blood was added gently without mixing between the Ficoll and the blood. The tubes were centrifuged for 30 minutes at 1000 g without brakes. The upper layer that contains the serum was removed and the Buffy coat that contains the peripheral blood mononuclear cells (PBMCs) was transferred to new tubes. The PBMCs were washed twice with 40 ml of phosphate buffer saline (PBS) and 2 mM EDTA (centrifuged at 700 g for 8 minutes). The PBMCs were resuspended in 20 ml PBS, counted, centrifuged at 500 g for 8 minutes and resuspended in PBMCs medium at 1-5×10^6 cells/ml. About 70×10^6 cells are isolated from a total of 50 ml blood sample.
The ability of the H9 Ab to detect HLA-A2/pp65 complexes was further evaluated in heterogeneous population of cells taken from CMV infected individuals. Briefly, samples were taken from bone marrow transplanted (BMT) patients whom are under reactivation of CMV infection due to immuno-suppression. Healthy donors were used as a control to verify the H9 Fab specificity.
Peripheral blood mononuclear cells (PBMCs) were isolated from samples taken from BMT patients and healthy donors. The isolated cells were stained with the H9 Ab and the secondary anti human alexa fluor^488 Ab. For intracellular staining with the H9 Ab, the cells were permeabilized as described under “General Materials and Experimental Methods”.

Molecule | blockage of killing by the CTLs [1] [%] | staining of HLA-A2+ cells infected with wild-type AD169 over time ([2]; 36, 72, 96, 120 hours, intracellular and cell surface) | reactivity with uninfected HLA-A2 positive cells ([2]; inside and on the cell surface) | staining of control noninfected cells [3] | extracellular staining of PBMCs ([4]; BMT patients or healthy controls, cell surface) | intracellular staining of PBMCs from BMT patients ([4]; permeabilized cells) | intracellular staining of PBMCs from healthy donors ([4]; permeabilized cells)
H9 IgG Ab: whole IgG molecule made from recombinant H9 Fab, produced in HEK293 cells (antibody, left off: a dimerising Fc or GST) heavy: EVQLVQSGAEVKKPGSSVKVSCKASGGTFSSYAISWVRQAPGQGLEWMGGIIPIFGTANYAQKFQGRVTITADESTSTAYMELSSLRSEDTAVYYCARGDLYYYDSSGYPRYYFDYWGQGTLVTVSSASTKGPSVFPLAPSSKSTSGGTAALGCLVKDYFPEPVTVSWNSGALTSGVHTFPAVLQSSGLYSLSSVVTVPSSSLGTQTYICNVNHKPSNTKVDKKVEPKSC light: LETTLTQSPGTLSLSPGERATLSCRASQSVSSSYLAWYQQKPGQAPRLVIYGASSRATGIPDRFSGSGSGTDFTLTISRLEPEDFAVYYCQHYSTSPGFTFGQGTKLEIRRTVAAPSVFIFPPSDEQLKSGTASVVCLLNNFYPREAKVQWKVDNALQSGNSQESVTEQDSKDSTYSLSSHQGLSSPVTKSFNRGEC | ~60 | specific and gradual increase in staining | not reactive |  |  |  | 
H9 Ab: H9 antibody, form not specified at the place; CDRs SEQ ID NOs:24-26 (heavy) and 30-32 (light) (antibody, left off: a dimerising Fc or GST) heavy: EVQLVQSGAEVKKPGSSVKVSCKASGGTFSSYAISWVRQAPGQGLEWMGGIIPIFGTANYAQKFQGRVTITADESTSTAYMELSSLRSEDTAVYYCARGDLYYYDSSGYPRYYFDYWGQGTLVTVSSASTKGPSVFPLAPSSKSTSGGTAALGCLVKDYFPEPVTVSWNSGALTSGVHTFPAVLQSSGLYSLSSVVTVPSSSLGTQTYICNVNHKPSNTKVDKKVEPKSC light: LETTLTQSPGTLSLSPGERATLSCRASQSVSSSYLAWYQQKPGQAPRLVIYGASSRATGIPDRFSGSGSGTDFTLTISRLEPEDFAVYYCQHYSTSPGFTFGQGTKLEIRRTVAAPSVFIFPPSDEQLKSGTASVVCLLNNFYPREAKVQWKVDNALQSGNSQESVTEQDSKDSTYSLSSHQGLSSPVTKSFNRGEC |  |  |  | no staining | did not detect; also recorded: No detection | significant binding; also recorded: significant specific staining | no staining
